# Data as given in PubChem BioAssay AID1346428 (National Center for Advancing Translational Sciences (NCATS), 2018).
# Several values for one entry are separate records, joined by “and”; a condition that tells them apart may be missing. Equal entries are not always repeated. Out of some 48,000 compounds screened, about 1,200 (2.5%) were called active. Inconclusive results (about 2%) are left out.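 Rule for the calls: active = activation of at least 60% and not above a set upper limit (about 1 call in 100 departs from these limits); inconclusive = activation of 40% to 60%, or above that upper limit; inactive = activation under 40%.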 Some of the results follow.
# Molecular target: Probable G-protein coupled receptor 32 (Homo sapiens) (UniProt O75388)
# Sequence of UniProt O75388 (O75388 whole entry, looked up): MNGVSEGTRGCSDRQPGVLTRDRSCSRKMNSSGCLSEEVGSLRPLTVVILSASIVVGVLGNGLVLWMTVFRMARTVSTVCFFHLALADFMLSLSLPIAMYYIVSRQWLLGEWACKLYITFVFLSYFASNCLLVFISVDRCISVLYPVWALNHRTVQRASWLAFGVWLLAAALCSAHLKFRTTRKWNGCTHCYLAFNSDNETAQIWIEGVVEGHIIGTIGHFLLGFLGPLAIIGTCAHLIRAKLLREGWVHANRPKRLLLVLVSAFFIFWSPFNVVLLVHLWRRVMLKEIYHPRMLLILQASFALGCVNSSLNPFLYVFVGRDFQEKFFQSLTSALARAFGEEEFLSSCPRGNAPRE
# Test: qHTS for Agonists of Human Resolvin D1 Receptor DRV1; note: 0% is about no effect
# Settings: CHO-K1 GPR32 beta-arrestin PathHunter luminescence, 90 min; at 76.9 µM; stronger effect = higher value; zero percent set by DMSO-only wells
# Summary of the method: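 Luminescent readout of beta-Gal complementation quantifies ligand-induced beta-arrestin association with GPR32 in CHO-K1 cells; 90 min compound incubation at 37 °C, detection 1 h at room temperature.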
row,Structure (SMILES),activation
1,COc1ccc(OC)c(NC(=O)CN2C(=O)COc3ccc(S(=O)(=O)NC4CCCC4)cc32)c1,inactive: -19.8%
2,Cc1cncn1CCc1nc2c3ccccc3nc(SCC(=O)Nc3cccc(Cl)c3)n2n1,inactive: 19.9%
3,O=C(c1ccc(CSc2nc3ccncc3n2Cc2cccc(F)c2)cc1)N1CCCCCC1,inactive: -2.8%
4,CCOc1ccccc1NC(=O)c1cc2c(=O)oc3ccccc3c2s1,inactive: 2.46%
5,CCC(Cn1nnc2ccccc2c1=O)NC(=O)Nc1ccc(C)c(C)c1 (stereo not given),inactive: -17%
6,CC1CCCCN1c1nnc(NC(=O)Nc2ccccc2F)s1 (stereo not given),inactive: 5.37%
7,Cc1ccc(/C=C/c2nc3ccccc3[nH]2)cc1,inactive: 30.8%
8,CCc1ccc(NC(=O)CCS(=O)(=O)c2ccc3c(c2)n(C)c(=O)c(=O)n3C)cc1,inactive: -5.26%
9,CC(C)COc1ccc(C(=O)N(Cc2ccc(N(C)C)cc2)Cc2ccco2)cc1,inactive: -32.4%
10,CS(=O)(=O)CCC(C(=O)Nc1cccc(C(F)(F)F)c1)N1Cc2ccccc2C1=O (stereo not given),inactive: -11.7%
11,O=C(c1ccco1)c1cn(CCOc2ccc(F)cc2)c2ccccc12,inactive: -2.25%
12,CC1CCCN(C(=O)c2cc3c(Cl)nc4ccccc4c3s2)C1 (stereo not given),active: 108%
13,Cc1ccc(OCc2nc3ccccc3n2CCOc2ccc(Cl)cc2)cc1,inactive: -53.8%
14,COCCCNC(=O)CSc1nc2cc(OC)c(OC)cc2c2nc(-c3ccccc3)nn12,inactive: 4.27%
15,Cc1ccc(Nc2nnc(-c3ccc(C)c(S(=O)(=O)NCc4nc5ccccc5[nH]4)c3)c3ccccc23)cc1,inactive: -6.23%
16,CC(C)c1ccc(NC(=O)Cn2c(=O)n(CCc3ccccc3)c(=O)c3ccccc32)cc1,inactive: 2.51%
17,CCc1cccc(CC)c1NC(=O)CN1C(=O)C(=O)c2ccccc21,inactive: -73.5%
18,Cc1ccc(-c2nc(SCC(=O)NCc3ccco3)c3c(=O)n(C)c(=O)n(C)c3n2)cc1,inactive: -2.98%
19,Cc1ccc(-c2nnc(Nc3cccc(O)c3)c3ccccc23)cc1S(=O)(=O)N1CCN(C)CC1,inactive: -1.28%
20,Cc1ccccc1OCC(O)Cn1c(=N)n(CCN2CCCCC2)c2ccccc21 (stereo not given),inactive: 19.7%
21,Cc1ccc(C(=O)Nc2cccc(-c3nc4ccccc4o3)c2)c(Cl)c1,inactive: -2.86%
22,Cc1c(Cn2ccnc2)c2ccccc2n1CCC(=O)O,inactive: -7.38%
23,CCCc1c(C)c2ccc(O)c(CN3CCN(c4ccc(F)cc4)CC3)c2oc1=O,inactive: -1.49%
24,COC(=O)c1c(Oc2ccc(C(C)=O)cc2)nnc(-c2ccccc2)c1-c1ccccc1,inactive: -7.11%
25,COc1ccccc1CNC(=O)CN1C(=O)CSc2ccc(S(=O)(=O)N3CCCCC3)cc21,inactive: -5.61%
26,CCN(c1ccccc1)c1ncnc2c1cnn2-c1ccc(C)cc1C,inactive: 40.8%
27,CCOC(=O)c1ccccc1NC(=O)c1cc2c(=O)oc3ccc(C)cc3c2s1,inactive: 9.76%
28,CC1=C(C(=O)N2CCN(c3cccc(C(F)(F)F)c3)CC2)C2(CCCCC2)OC1=O,inactive: -6.2%

row,Structure (SMILES),activation
1,Cc1ccc(NC(=O)Cn2cc3c(n2)CCCCC3)cc1,inactive: -1.21%
2,O=C(Nc1ccc(Cl)cc1Cl)c1cc(S(=O)(=O)N2CCc3ccccc32)ccc1F,inactive: -16.7%
3,Cc1ccc(S(=O)(=O)Nc2cccc(-c3cn4cccc(C)c4n3)c2)cc1,inactive: -10.3%
4,CCOC(=O)c1noc2nc(C)n(CC(=O)Nc3ccccc3F)c(=O)c12,inactive: 9.88%
5,Cc1cccc(N2CCN(C(=O)c3c(C)oc4ncnc(N5CCCCC5)c34)CC2)c1C,active: 85.1%
6,Cc1ccc(C)c(Nc2nc3c(S(=O)(=O)c4ccc(C(C)C)cc4)nnn3c3ccsc23)c1,inactive: -12.1%
7,CCc1ccc(C2CC(=O)Nc3cc4c(cc32)OCO4)cc1 (stereo not given),active: 72.3%
8,COc1ccc(S(=O)(=O)n2ccnc2)cc1C(C)(C)C,inactive: -4.12%
9,CCc1ccccc1N1C(=O)N(Cc2ccccc2C)c2ccccc2S1(=O)=O,inactive: -22.4%
10,CC(C)CN(CCCNC(=O)CN1C(=O)CSc2ccc(S(=O)(=O)N3CCOCC3)cc21)CC(C)C,inactive: -6.77%
11,CN1CCN(C2=Nc3ccccc3Oc3ccc(Cl)cc32)CC1,inactive: 3.16% and inactive: -29.4%
12,CCOc1ccc(CNC(=O)CSc2nnc(C)c3c(C)n(-c4ccccc4)nc23)cc1,inactive: -10.1%
13,Cc1ccccc1CCNC(=O)c1ccc2c(c1)c(C)c(C)n2Cc1ccccc1,inactive: -25.8%
14,COc1ccc(OC)c2sc(N3CCN(C(=O)C4CC4)CC3)nc12,inactive: -11%
15,COc1ccc(OC)c(-n2cnc3cc(C(=O)NC4CCCCCC4)ccc32)c1,inactive: -14.4%
16,CCOc1ccc(NC(=O)CC2C(=O)OCCN2CC)cc1 (stereo not given),inactive: 17.5%
17,COc1ccccc1NC(=O)c1cnc(SCC(=O)N2CCCc3ccccc32)n(C)c1=O,inactive: -16.5%
18,Cc1ccc(NC(=O)Cn2c(=O)n(CCC(=O)N3CCc4ccccc4C3)c(=O)c3ccccc32)cc1,inactive: 3.52%
19,Cc1cc(C)cc(S(=O)(=O)Nc2cccc(-c3ccc(N4CCOCC4)nn3)c2)c1,inactive: -9.86%
20,CC(=O)c1ccc(NC(=O)Cn2c(=O)c3cccn3c3ccccc32)cc1,inactive: 8.78%
21,COc1ccc(Cn2c(C(=O)O)c(CNCCc3cccs3)c3ccc(C)cc32)cc1,inactive: 34%
22,COc1ccccc1CNC(=O)c1ccc2c(c1)N(Cc1cccc(Cl)c1)C(=O)c1ccccc1S2(=O)=O,inactive: -17.1%
23,Cc1ccc(Cn2c(C(=O)O)c(CNC3CCCCCC3)c3ccc(C)cc32)cc1,inactive: -2.58%
24,CC(C)(C)C(=O)NCCc1nc2ccccc2n1CCCCOc1ccc(Cl)cc1,inactive: 37.1%
25,Cc1oc2ncn(CC(C)C)c(=O)c2c1C(=O)Nc1cc(F)ccc1F,inactive: -26.1%
26,O=C(NN1CCCC1)NS(=O)(=O)c1ccc(Cl)cc1,inactive: -64.3%
27,COc1ccc(-n2nc3c(N4CCCC(C(=O)NCc5cccc(F)c5)C4)nnc(C)c3c2C)cc1 (stereo not given),inactive: -5.25%
